In PubChem BioAssay AID624296 (National Center for Advancing Translational Sciences (NCATS), 2012):
The campaign covered roughly 350,000 compounds. About 9,900 (2.8%) were called active. Inconclusive means that the source gave no clear call. Such entries were picked first, then a sample of the others. The call rests on the fitted dose curve; in most records, active means well fitted activation curve with a large enough effect; inconclusive means small, poorly fitted or top-dose-only effect; inactive means no such curve, though single readings can be large or run the other way. No potency is given beside an inconclusive call; the fits are too rough.

test: A quantitative high throughput screen for small molecules that induce DNA re-replication in MCF 10a normal breast cells.; further: nearly all actives have a fitted effect of over 50% in size; on activity, positive = re-replication: % of control where 0% means no effect; settings: MCF 10A DNA re-replication, Hoechst nuclear intensity, 48 h; activity, positive = re-replication: at 46.1 µM (top of the series)
Potency means the concentration at half of the fitted maximal effect; tags describe the fitted curve by direction and shape.

SMILES | Potency | activity, positive = re-replication
COc1cc(OC)c(-c2nn3c(C4CCCCC4)nnc3s2)cc1OC | inactive | 
CCc1nccn1CCC(=O)NC1CC(C)(C)Cc2c1cnn2-c1cccc(F)c1 (centres undefined) | inconclusive [activator, partial curve, poor fit] | 
Cc1ccc(C(=O)CSc2nnc(-c3ccncc3)n2C)cc1 | inconclusive [activator, single point] | 
O=C(NCc1ccccc1C(F)(F)F)C1CCC(=O)N(C2CC2)C1 (centres undefined) | inactive | 
O=C(Nc1ccc(Oc2cccnc2)cc1)C1CCN(Cc2cccc(Cl)c2)CC1 | inconclusive [activator, partial curve, poor fit] | 
CS(=O)(=O)Cc1ccc(C(=O)N2CCCC2c2cccs2)cc1 (centres undefined) | inactive | 
O=[N+]([O-])c1ccc2nc(-c3ccc(OC(F)F)cc3)cn2c1 | inconclusive [activator, partial curve, poor fit] | 
CCOC(=O)c1nnc(-c2ccc(C)cc2)nc1Oc1ccc(Cl)cc1Cl | inconclusive [activator, single point] | 
CC1(C)Cc2c(cnn2-c2ccccc2)C(NC(=O)CCc2ccncc2)C1 (centres undefined) | inconclusive [activator, partial curve, poor fit] | 
COc1cccc(/C=N/Nc2ncnc(Cl)c2N)c1O | inconclusive [activator, partial curve] | 
N#Cc1cc2c(nc1SCC(=O)Nc1sc3c(c1C#N)CCC3)CCCCCC2 | active: 3.26 µM | 
COc1ccc(S(=O)(=O)N(C)CC(=O)Nc2ccccc2C(F)(F)F)cc1Cl | inactive | 
CCOc1ccc(Nc2nc(N)nc(CN(C)C3CCCCC3)n2)cc1 | inconclusive [activator, single point] | 
Cc1nn(-c2ccc(Cl)cc2)c(Cl)c1/C=C(\C#N)C(N)=O | inconclusive [activator, single point] | 
Nc1ccc(Oc2ccc([N+](=O)[O-])cc2[N+](=O)[O-])cc1 | inactive | 
Cc1nn(Cc2ccccc2Cl)c(C)c1C(=O)N(C)CC(=O)Nc1cccc(F)c1 | inactive | 
CC(=O)c1cc(C#N)c(SCC(=O)C(C)(C)C)nc1C | inconclusive [activator, single point] | 
O=C(Nc1ccccc1F)C(c1ccccc1)c1ccccc1 | inconclusive [activator, partial curve, poor fit] | 
COc1ccccc1-c1sc2cc3c(cc2c1-c1ccc(OCCN2CCCCC2)cc1)OCO3 | active: 10.3 µM | 
Cc1cnn(CCC(=O)NNC(=S)Nc2cccc(Cl)c2)c1 | inactive | 
O=C(Nc1ccc(Oc2cccnc2)cc1)c1ccccc1Cl | inactive | 
CCS(=O)(=O)c1ncc(Cl)c(C(=O)Nc2ccccc2OC)n1 | active: 2.31 µM | 
CCO[C@@H]1OC(C(=O)N2CCN(C)CC2)=C[C@H](C(C)(C)C)[C@H]1CCCO | inconclusive [activator, full curve, poor fit] | 

SMILES | Potency | activity, positive = re-replication
Cc1nc2ccc(NC(=O)C3=NN(C)C(=O)CC3)cc2s1 | inconclusive [activator, single point] | 
Cc1ccc(S(=O)(=O)c2c(C)nn(C(C)(C)C)c2OC(=O)C2CCCC2)cc1 | inconclusive [activator, partial curve, poor fit] | 
COc1ccc(C(=O)N[C@H](C(=O)NCc2cccs2)C(C)C)cc1 | inconclusive [activator, single point] | 
Cc1ccc(C(=O)Cn2c(C(=O)/C=C/c3ccccc3)nc3ccccc32)cc1 | active: 23.1 µM | 
CCn1c(C(C)NC(=O)c2ccc(C)cc2)n[nH]c1=S (centres undefined) | inconclusive [activator, single point] | 
COC(=O)c1ccccc1NC(=O)/C=C/c1cc(OC)c(OC)c(OC)c1 | inconclusive [activator, partial curve, poor fit] | 
Cc1ccc(-n2nc(C)c3c2OC(N)=C(C#N)C3c2ccccc2F)cc1 (centres undefined) | inconclusive [activator, partial curve, poor fit] | 
COc1ccc(CN(C(C)=O)c2cccc(C)c2C)cc1 | inconclusive [activator, single point] | 
O=C(C[n+]1cccc(C(=O)N/N=C/c2ccc(Br)cc2)c1)c1ccccc1 | inconclusive [activator, partial curve, poor fit] | 
COc1c(C)cccc1C(=O)Nc1cc(Cl)ccc1N1CCOCC1 | inconclusive [activator, single point] | 
O=C(Oc1cccc(-c2cnc3ccccc3n2)c1)c1ccco1 | inactive | 
O=C(c1cc(-c2cccnc2)nc2ccccc12)N1CCCc2ccccc21 | inconclusive [activator, single point] | 
CNC(=S)Nc1cc(C)ccc1OC(F)F | inactive | 
O=C(CSc1ncnc2c1nnn2-c1ccc(F)cc1)NCc1ccco1 | inconclusive [activator, single point] | 
Cc1ccccc1Nc1ccc(S(=O)(=O)N2CCOCC2)cc1[N+](=O)[O-] | inconclusive [activator, single point] | 
COc1ccc(S(=O)(=O)N2CCOCC2)cc1NC(=O)c1ccc(OCC(C)C)c(OC)c1 | inactive | 
COc1ccc(CCNC(=O)c2ccc3c(c2)S(=O)(=O)N=C2CCCCCN23)cc1 | inconclusive [activator, single point] | 
CCc1cc(C(c2ccccn2)N2CCN(C)CC2)c(NC(=O)c2ccccc2)s1 (centres undefined) | inconclusive [activator, partial curve, poor fit] | 
COc1ccc(NC(=O)CN2CCC3(O)CCCCC3C2c2cc(OC)ccc2OC)cc1 (centres undefined) | inconclusive [activator, partial curve, poor fit] | 
COc1ccc(/C=C/C(=O)NC(=S)NCc2ccccc2)cc1OC | inactive | 
COc1cccc(C2c3cc4c(cc3OC(N3CCOCC3)C2C)OCO4)c1O (centres undefined) | inconclusive [activator, single point] | 
COc1cccc(C2=NOC(C(=O)N3CCc4ccccc4C3)C2)c1 (centres undefined) | inconclusive [activator, single point] | 
CC(C)(C)N(Cc1ccccc1)C(=O)COC(=O)CN1C(=O)NC2(CCCC2)C1=O | inactive | 

SMILES | Potency | activity, positive = re-replication
CC(C)(C)NC(=O)CSc1nc2[nH]ncc2c(=O)[nH]1 | inactive | 
COc1cc(C(Nc2ccccn2)c2c(NC(=O)c3ccco3)sc(C)c2C)cc(OC)c1OC (centres undefined) | inactive | 
O=C(c1ccc(Br)cc1)c1cc(-c2ccccn2)c(N2CCOCC2)s1 | inconclusive [activator, single point] | 
Cc1ccc(S(=O)(=O)NC(CC(=O)NCC2CCCO2)c2ccco2)cc1 (centres undefined) |  | inconclusive: 65% [activator]
O=C(CSc1nnc(COc2ccccc2)n1-c1ccccc1)c1cccs1 | inconclusive [activator, partial curve, poor fit] | 
COC(=O)c1c(NC(=O)CN2CCN(C(=O)c3ccco3)CC2)c2cc(C)ccc2n1C | inactive | 
Clc1cc(Br)ccc1OCCCNCc1ccccc1 | inconclusive [activator, single point] | 
CNC(=O)c1ccc(-c2sc3nc(N4CCOCC4)c4c(c3c2N)CC(C)(C)OC4)o1 | active: 2.91 µM | 
CC(=O)Nc1ccc(NC(=O)COc2ccc(Cl)cc2Cl)cc1 | inconclusive [activator, single point] | 
C/C(=N\NC(=O)c1c(Cl)c(C)nn1C)c1cccc(NC(=O)C2CCCC2)c1 | inconclusive [activator, single point] | 
N#C/C(=C/Nc1ccccc1)c1ccsc1 | inconclusive [activator, full curve, poor fit] | 
N#Cc1c(-c2ccc(F)cc2)c2c([nH]c1=O)-c1ccccc1OC2 | active: 4.11 µM | 
O=C(CSc1nc2ccccc2s1)NNC(=S)Nc1ccccc1 | inconclusive [activator, single point] | 
COc1ccc(-c2cc(C(=O)Nc3ccc(C)c(N)c3)c3ccccc3n2)cc1 | inconclusive [activator, single point] | 
FC(F)Oc1ccc(NC(=S)NN2CCOCC2)cc1 | inactive | 
Cc1cc(C)c(C#N)c(N2CCN(CCOc3ccc(Cl)cc3)CC2)n1 | inconclusive [activator, single point] | 
c1ccc(-c2cc(-c3nnc4n3N=C(c3ccc5ccccc5c3)CS4)[nH]n2)cc1 | active: 4.11 µM | 
COc1ccc(/C=N/NC(=O)c2cc(-c3ccccc3OC(C)C)nc3ccccc23)cc1CN1CCOCC1 | active: 8.2 µM | 
COc1cc(C2c3cc4c(cc3OC(N3CCCC3)C2C)OCO4)cc(OC)c1O (centres undefined) | inconclusive [activator, single point] | 
Cc1cc(C)cc(NC(=O)C2CCN(c3cnccn3)CC2)c1 | inconclusive [activator, partial curve, poor fit] | 
CCc1ccc(S(=O)(=O)Nc2c(NC3CCCCC3)c3ccccc3oc2=O)cc1 | inactive | 
O=S(=O)(O)c1cc(O)c2c(N=Nc3ccc(Nc4ccccc4)c4c(S(=O)(=O)O)cccc34)cc(S(=O)(=O)O)cc2c1 | inactive | 
O=C1N/C(=C/c2ccc(N3CCCC3)cc2)C(=O)N1c1ccccc1 | inconclusive [activator, partial curve] | 
